Results on 42 sequences are retold here after paper PMC7819943, “Rice protein-binding microarrays: a tool to detect cis-acting elements near promoter regions in rice”.

The other results are listed elsewhere or left out.

For this test, the target named is T1, OsWOX13 (Oryza sativa, UniProt Q5QMM3 1-267).
T1 sequence: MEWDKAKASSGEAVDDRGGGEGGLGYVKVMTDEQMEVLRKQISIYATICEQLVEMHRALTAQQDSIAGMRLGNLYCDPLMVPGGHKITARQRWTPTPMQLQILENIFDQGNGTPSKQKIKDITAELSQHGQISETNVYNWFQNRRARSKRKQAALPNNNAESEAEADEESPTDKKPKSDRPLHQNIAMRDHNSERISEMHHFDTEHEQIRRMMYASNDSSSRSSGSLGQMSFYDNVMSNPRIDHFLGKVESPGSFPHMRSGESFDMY
Briefly: protein-binding microarray (RPBM); PBS, 2% BSA, 51.3 ng/ul salmon testes DNA, 50 uM zinc acetate, 200 nM TF, 25 C, 1 h; high values mean tight binding. The following applies: protein: recombinant; tags: N-terminal polyhistidine and DsRed monomer fusion (pET32a); label: CyDye5-dUTP incorporated in the synthesized complementary strand; 3' TTTTT single-stranded linker to array surface; dsDNA, one strand shown. The gist of the method:
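An Axon 4000B scanner gave the binding signal as per-feature fluorescence intensity in arbitrary units. This followed washing of a custom Agilent array that had been incubated for 1 h at 25 °C with 200 nM protein in PBS, 2% BSA, salmon testes DNA and 50 µM zinc acetate. The proteins were transcription factors fused at the N-terminus to polyhistidine and DsRed, expressed in E. coli BL21-CodonPlus and purified on Ni–NTA.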
As for “TTGCCGTGATTGTGTGATCTTGAATTTGATCGCTAGGAGGCGGAGTCACCTAGTGCAG”, the binding signal is 40100 fluorescence intensity (a.u.). For “TGATCGATTGAAAGCAAATATCATCTTGAAAAGGATCGTTCGGAGTCACCTAGTGCAG” the value was 3330 fluorescence intensity (a.u.). Turning to “CGGAGTAAATTGTTTACTATCAAATCTATCTGCTGCCTATCGGAGTCACCTAGTGCAG”, the binding signal is 13000 fluorescence intensity (a.u.). For “CATGTAATTACGTTTCGGCCCAAAACGGAAAGCAAAATTTCGGAGTCACCTAGTGCAG” the value was 3640 fluorescence intensity (a.u.); for “TTCGTGATAGATGGTGTCAGGCATTTCACTGAATGATCTACGGAGTCACCTAGTGCAG”, 5580 fluorescence intensity (a.u.); for “CTAAATTATAGCAGCGAACACACATCATGAGAAATACATCCGGAGTCACCTAGTGCAG”, 5670 fluorescence intensity (a.u.). For “TATTCTCTCAACTGATTTCATTGACGAAATCTGTTGAGAACGGAGTCACCTAGTGCAG”, the binding signal was 3150 fluorescence intensity (a.u.). On to “ACCATCACAAACTTAATTAATTCCAATAGCATATACCAACCGGAGTCACCTAGTGCAG”, for which the binding signal was 12100 fluorescence intensity (a.u.). As for “CTTGAGTAATAAAGAAATAATTTGCATTAGTTAGTCAGTCCGGAGTCACCTAGTGCAG”, the binding signal was 5070 fluorescence intensity (a.u.).

As to “AATGATTAGTAAATTTGAAGAGTAGTAGCTAGCTAGCTACCGGAGTCACCTAGTGCAG”, the binding signal was 13100 fluorescence intensity (a.u.). Turning to “TTATAGTTTTATGACTAAATTGATGCTACACATGTAGTTTCGGAGTCACCTAGTGCAG”, the binding signal was 3910 fluorescence intensity (a.u.).

On to “TTTGCCGCTGAGTAATTAAATTGTCTACTTACAAATCCTCCGGAGTCACCTAGTGCAG”, for which the binding signal was 3590 fluorescence intensity (a.u.). “TTATCAATCGCGCAATTTGCAAATACGTCATCCTTTCAAGCGGAGTCACCTAGTGCAG”: the binding signal was 7910 fluorescence intensity (a.u.).

“GCGTCTTAATGACAAGTGTTGATCTGACAGACCTGGAGCTCGGAGTCACCTAGTGCAG”: the binding signal was 3680 fluorescence intensity (a.u.). As to “GTAATATTATCAAATTAGTAAAATTTGATAAGGTTTAATTCGGAGTCACCTAGTGCAG”, the binding signal is 7690 fluorescence intensity (a.u.). For “AGGGTAATAAATTGGAACCAAACCAAATAGGCCCATTATGCGGAGTCACCTAGTGCAG” the value was 19400 fluorescence intensity (a.u.); for “CCCCTGTCTCAAAATGTAATAATTTATAATTCTTTAGGTGCGGAGTCACCTAGTGCAG”, 3660 fluorescence intensity (a.u.).

Consider “TCACTCTGATACAAATTTCAATTGATTTCAGGATATCAGACGGAGTCACCTAGTGCAG”, for which the binding signal is 3430 fluorescence intensity (a.u.). Take “CAGCTAAATGCCGATTAATTAAGGAAGGGATAAATCCTATCGGAGTCACCTAGTGCAG”: the binding signal was 7860 fluorescence intensity (a.u.). For the sequence “ACGATTTATTTACCAGATTATTGCAATGGATTATCCTCTCCGGAGTCACCTAGTGCAG”, the binding signal is 5390 fluorescence intensity (a.u.). For the sequence “TCCCAGGCCTGTTGATCATGCTTATTGGGAATGCTTTTCACGGAGTCACCTAGTGCAG”, the binding signal is 5330 fluorescence intensity (a.u.). As for “CTCCCGATCCCAATCAGCCTCAAGCCCCGCAGCACGGACACGGAGTCACCTAGTGCAG”, the binding signal was 3410 fluorescence intensity (a.u.). In the case of “TCCAATATAAACTGGATTAGGGCTATTACCTGTCAAGGGGCGGAGTCACCTAGTGCAG”, the binding signal was 6200 fluorescence intensity (a.u.). For “CCTTTCAAATCAGATCCTAGTGATTGTCCCCTGGTTATAACGGAGTCACCTAGTGCAG”, the binding signal is 9950 fluorescence intensity (a.u.). For “TTTGACAGCGGCTGATGTTATATAGAGGAAAACGATGAGGCGGAGTCACCTAGTGCAG” the value was 12500 fluorescence intensity (a.u.). For “AAATATTCTGATTAGCTGCAGAGTGTTTCATTGGAAAATCCGGAGTCACCTAGTGCAG” the value was 6160 fluorescence intensity (a.u.). “AACTCTTAATTAATATAAACTATAAATATTAAATAATGAACGGAGTCACCTAGTGCAG”: the binding signal is 10800 fluorescence intensity (a.u.).

Turning to “AATAAATTGGAGCTTCATCTTGGGTGACCAGACTATTTGGCGGAGTCACCTAGTGCAG”, the binding signal was 22700 fluorescence intensity (a.u.). For “TTGGGACTGATTCGTCAATTCCCCGGATAATCAGGTCGATCGGAGTCACCTAGTGCAG” the value was 8000 fluorescence intensity (a.u.). Turning to “GTGACAAACTGACAACAGGTTGTTTAGTTTTCCATGATTACGGAGTCACCTAGTGCAG”, the binding signal is 4530 fluorescence intensity (a.u.).

In the case of “TTTTGTTGACAGTAAATATTAATTTAGGGACGGTTTGAGTCGGAGTCACCTAGTGCAG”, the binding signal was 7190 fluorescence intensity (a.u.).

Consider “TGCCTATAATTGTAGAAGGGACACGGAGCCGATCGATCCACGGAGTCACCTAGTGCAG”, for which the binding signal was 5260 fluorescence intensity (a.u.). For the sequence “CATTAAATTAGTGCTCAAGAAATATTTTCGTCGTAGTATACGGAGTCACCTAGTGCAG”, the binding signal is 12300 fluorescence intensity (a.u.).

Consider “AACACAAATTAGTTAATTGAATATAACATTTCATATAGTACGGAGTCACCTAGTGCAG”, for which the binding signal was 34400 fluorescence intensity (a.u.). For “CGCTAATGTGTCCTCTAACATATAGAAGAGACAGAAACCACGGAGTCACCTAGTGCAG” the value was 4220 fluorescence intensity (a.u.).

“ACTTGTTGACTAACTATTGTTAACTGTTATGCTGTGGTATCGGAGTCACCTAGTGCAG”: the binding signal was 4870 fluorescence intensity (a.u.). For “CACATTATCAATCATCATTAATCATTAATTAGCTGCTTGCCGGAGTCACCTAGTGCAG”, the binding signal was 36600 fluorescence intensity (a.u.).

In the case of “TCTGATAGTAATTGAAGTATAAAACAGAGGATTGCAAAACCGGAGTCACCTAGTGCAG”, the binding signal was 24300 fluorescence intensity (a.u.).

As for “TTAGTTAACTAATCTAATCTTAGTTTATAAAATTTTAGTGCGGAGTCACCTAGTGCAG”, the binding signal is 14000 fluorescence intensity (a.u.). On to “TATAAACAGGTGCTAATTAAAATTAAGAATTTTGAAAGCACGGAGTCACCTAGTGCAG”, for which the binding signal was 42100 fluorescence intensity (a.u.).

For “GTAGATAATAGATAAATAGATAATAGATAACAAATAAAATCGGAGTCACCTAGTGCAG”, the binding signal was 6330 fluorescence intensity (a.u.).

As to “CTCCTAAATTTAACTTCAAGGATGAAGCTATGGAGCTATCCGGAGTCACCTAGTGCAG”, the binding signal was 5080 fluorescence intensity (a.u.).
